Test results taken from the supplement of paper PMC12217912.
The list shows a part of the results. The full chains were built here from the parent and the listed change. Inactive controls read about 0.05.

B1: TEV protease; numbered along this chain (parent)
chain: MGESLFKGPRDYNPISSSICHLTNESDGHTTSLYGIGFGPFIITNKHLFRRNNGTLVVQSLHGVFKVKDTTTLQQHLVDGRDMIIIRMPKDFPPFPQKLKFREPQREERICLVTTNFQTKSMSSMVSDTSCTFPSGDGIFWKHWIQTKDGQCGSPLVSTRDGFIVGIHSASNFTNTNNYFTSVPKNFMELLTNQEAQQWVSGWRLNADSVLWGGHKVFMVKPEEPFQPVKEATQL

Variants of: B1
Assay: raw area under fraction-flipped curve 0-4 h after induction (AUC4h, not background-subtracted), DNA-recorder readout of cleavage of the substrate (dimensionless); higher = more cleavage of the substrate by the protease variant
Settings: temperature: 34 °C; time window: 0-4 h after rhamnose induction
Method: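 In vivo DNA recorder in E. coli TOP10(DE3) ΔrhaA at 34 °C. Each TEVp single-site mutant (parent TEVp 0) is paired with a single-site variant of the 7-mer TEVs (canonical ENLYFQ|S). The substrate sits between flexible linkers in a Bxb1-sfGFP-TEVs-SsrA fusion, so cleavage stabilises Bxb1 and speeds flipping of a recombination array, read by NGS. The value is the raw area under the fraction-flipped curve over 0-4 h after rhamnose induction (AUC4h), with ≥20 reads per time point. It is not background-subtracted; inactive controls average about 0.047.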
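Also: Bxb1 expression induced with 0.2% (w/v) L-rhamnose at OD600 near 0.5, cultures sampled hourly, flipped fraction per protease–substrate barcode pair counted by paired-end Illumina sequencing.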

Variant	area with substrate ENLYFQA	area with substrate ENLYFQC	area with substrate ENLYFQD	area with substrate ENLYFQF	area with substrate ENLYFQG	area with substrate ENLYFQH	area with substrate ENLYFQI	area with substrate ENLYFQK	area with substrate ENLYFQL	area with substrate ENLYFQM	area with substrate ENLYFQN	area with substrate ENLYFQP	area with substrate ENLYFQQ	area with substrate ENLYFQR	area with substrate ENLYFQS	area with substrate ENLYFQT	area with substrate ENLYFQV	area with substrate ENLYFQY	area with substrate ENLYFQE	area with substrate ENLYFQW
P14W	0.0712	0.124	0.0711	0.0779	0.0856	0.115	0.0667	0.0561	0.0605	0.078	0.0823	0.0658	0.0622	0.0597	0.101	0.0722	0.0636	0.08	–	–
P14C	0.107	0.077	–	0.0599	0.0982	0.068	0.0653	0.0677	0.0496	0.0875	0.0608	0.0574	0.0691	0.055	0.0955	0.0535	0.0602	0.0679	0.0688	0.0622
R10P	0.0914	0.096	0.0737	–	0.0915	–	0.0517	0.0673	–	0.094	0.0674	–	–	0.0486	0.0962	0.063	–	–	–	–
R10V	0.0633	0.0868	–	0.0589	0.088	0.0687	0.0614	0.0602	0.0628	0.085	0.0516	–	0.0712	0.0753	0.0778	0.0825	0.0776	0.0469	–	0.0691
R10C	0.1	0.104	–	0.0611	0.0913	–	0.0527	0.066	0.0622	0.0957	0.0735	–	–	0.0714	0.0946	0.0604	0.066	–	–	0.0594
R10G	0.101	0.125	0.0647	0.0898	0.109	0.128	0.0571	–	0.0933	0.0645	0.0732	0.0589	0.0676	0.062	0.0951	–	0.0664	0.114	–	0.0698
Y12W	0.0958	0.112	–	–	0.0965	–	0.063	0.065	0.0573	0.0839	0.0747	0.0634	–	0.0614	0.0977	0.0612	0.0587	0.0601	0.0718	0.0644
H21N	0.0952	–	–	–	0.095	0.0882	0.0655	0.0901	0.0593	–	0.0572	–	–	0.0574	0.0891	0.0689	0.06	0.0664	–	0.058
H21Y	0.0884	0.101	0.0725	0.0792	0.121	–	0.0638	0.073	0.0625	0.0905	0.0586	0.0685	–	0.0461	0.093	–	0.0514	–	–	–
H21W	0.0847	0.125	0.0791	–	0.101	0.116	0.0699	0.0725	0.0548	0.0979	0.0818	0.045	0.0635	0.0605	0.106	0.0677	0.0586	0.0689	–	0.0607
H21G	0.105	0.114	0.0732	0.0798	0.106	0.0814	0.0483	0.0616	0.0551	0.0942	0.0699	0.058	0.111	0.0445	0.0997	0.0658	–	0.0723	–	0.0593
T23R	0.1	0.094	0.0938	0.0725	0.129	0.0734	0.0599	0.0542	0.0636	0.0778	0.078	0.0476	–	0.0592	0.0949	0.0486	0.0679	0.0849	–	0.0536
T23I	0.119	0.103	0.0766	0.0965	–	0.147	0.057	0.0579	0.0728	0.0917	0.0792	0.0649	0.0823	0.0612	0.11	0.0796	0.0567	0.0712	–	0.0741
S4R	0.112	0.152	0.0641	0.0771	–	0.0723	–	0.0699	0.066	0.109	–	0.0213	0.082	–	0.135	0.0688	0.0705	0.0919	0.0817	0.0497
S4N	0.0652	0.158	0.0831	–	0.0924	0.0956	0.059	0.0362	0.0573	0.113	0.0903	0.035	0.0528	0.0471	0.116	0.0627	0.0558	0.0824	0.112	–
S4G	0.113	0.148	0.079	0.0948	0.133	0.0823	0.0515	0.0706	0.0585	0.109	0.0849	0.0586	0.0699	0.0553	0.118	0.0701	0.074	0.0858	–	0.0669
G2M	0.122	0.159	–	–	0.136	–	–	–	–	–	–	–	–	0.0856	0.128	0.0847	–	–	–	–
D27A	0.0846	0.103	0.0686	0.0776	0.0843	0.0753	0.0485	0.0561	0.0444	0.0721	0.0695	–	–	0.0478	0.0937	–	0.0733	0.0741	–	0.0554
D27Q	0.124	0.0512	–	–	0.0728	–	0.0641	0.058	0.0604	0.0654	0.0754	–	–	0.0585	0.0955	0.0649	–	0.0775	–	0.0559
S26F	0.0519	0.0721	0.0746	–	0.0673	0.0551	0.062	0.0645	0.0521	0.0807	0.0624	0.0568	0.0513	0.0603	0.0774	0.0777	0.0724	–	–	0.0615
S26C	0.098	0.0865	0.0783	0.0593	0.0874	0.0741	0.0628	0.0541	0.0545	–	0.063	–	0.067	0.0649	0.0903	0.0593	0.0643	0.0681	0.0709	–
C20F	0.0545	0.0736	0.051	–	–	0.0556	–	0.0465	0.0399	0.0643	0.0566	–	–	0.0514	0.067	0.0575	0.0461	0.0719	–	0.057
